B1: LINE1-full (parent)
chain: UACGUAGGUGGUUUUCCCCUGAUAGUGCUAAGGGGGCCUGGAAGUUUGGACUGGGCAGAGCUCAACACAGCGUGGCAAAGUGGCUGUGGCUAGACUGCCUCUCUGGAUUCCUCGUCACUCAGCAGGGCAUCUCUGAGAGAAAUGCC

Read counts are not given, so values of variants with three or more changes are uncertain.

Consider 39 variants from the RNAGym collection of RNA variant scans (doi:10.7554/elife.90254).

In the data set the parent is B1. As to the kind of experiment: self-cleavage, relative activity (ratio to wild type); higher = more cleavage; in vitro, sequencing; the parent is a self-cleaving ribozyme.
With CACGUAGGUGGUUUUCCCCUGAUAGUGCUAAGGGGGCCUGGAAGUUUGGACUGGGCAGAGCUCAACACAGCGUGGUAUAGUGGCUGUGGCUAGACUGCCUCUCUGGAUUCCUCGUCACUCAGCAGGGCAUCGCUGAGAGAAAUGCC, the self-cleavage stood at 1.88.
As for CACGUAGGUGGUUUUCCCCUGAUAGUGCUACAGGGGCCUGGAAGUUUGGACUGGGCAGAGCUCAACACAGCGUGGCAAAGUGGCUGUGGCUAGACUGCCUCUCUGGAUUCCUCGUCACUCAGCAGGGCAUCUCUGAGAGUAAUGCC, the figure is 0.71; as for CACGUAGGUGGUUUUCCCCUGAUAGUGCUAAGGGGGCCUGGAAGUUUGGACUGGGCAGAGCUCAACACAGCGUGGCGAAGUGGCUGUGGCUAGACUGCCUCUCUGGUUUCCUCGUCACUCAGCAGGGCAUCUCUGAGAGAGAUGCC, 1.09.
In the case of CACGUAGGUGGUUUUCCCCUGAUAGUGCUAAGGGGGCCUGGAAGUUUGGACUGGGCGGAGCUCAACACAGCGUGGCAAAGUGGCUGAGGCUAGACUGCCUCUCUGGAUUCCUCGUCACUCAGCAGGGCAUCUCUGAGAGAAAUGCC, the self-cleavage turned out to be 0.06.
Regarding CACGUAGGUGGUUUUCCCCUGAUAGUGCUAAGGGGGCCUGGAAGUUUGGACUGGGCAGAGCUCAACACAGCGUGGCAAAGUGGUUGUGGCUAGACUGCCUCUCUGGAUCCCUCGUCACUCAGCAGGGCAUCUCUGAGAGAAAUGCC, the self-cleavage was 0.04.
Then CACGUAGGUGGUUUUCCCCUGAUAGUGCUAAGGGGGCCUGGAGGUUUGGACGGGGCAGAGCUCAACACAGCGUGGCAAAGAGGCCGUGGCUAGACUGCCUCUCUGGAUUCCUCGUCACUCAGCAGGGCAUCUCUGAGAGAAAUGCC, with 0.
Consider CACGUAGGUGGUUUUCCCCUGAUAGUGCUAAGGGGGCCUGGAAGUUUGGACUGGGCAGAGCUCAGCACAGCGUGGCAAAGCGGCUGUGGCUAGACUGCCUCUCUGGAUUCCUCGUCACUCAGCAGGGCAUCUCUGAGAGAAAUGCC, for which the self-cleavage is 0.
As for CACGUAGGUGGUUUUCCCCUGAUAGUGCUAAGGGGGCCUGGAAGUUUGGACUGGGCAGAGCUCGACACAGCGUGGCAAAGUGGCUGUGGCUAGACUGCCUCUCUGGAUUCCUCGUCACUCAGCAGGGCAUCCCUGAGAGAAAUGCC, the figure is 0.25.
Then CACGUAGGUGGUUUUCCCCUGAUAGUGCUAAGGGGGCCUGGAAGUUUGGACUGGGCAGAGCUCGACACAGCGUGGCAAAGUGGCUGUGGCUAGACUGCCUCCCUGGAUUCCUCGUCACUCAGCAGGGCAUCUCUGAGAGAAGUGCC, with 0.07; and CACGUAGGUGGUUUUCCCCUGAUAGUGCUAAGGGGGCCUGGAAGUUUGGACUGGGCAGAGCUCAACACAGCGUGGCAAUGUGGCUGUGGCUAGACCGCCUCUCUGGAUUCCUCGUCACUCAGCAGGGCAUCUCUGAGAGAAAUGCC, with 0.16; and CACGUAGGUGGUUUUCCCCUGAUAGUGCUAAGGGGGCCUGGGAGUUUGGACUGGGCAGAGCUCAAAACAGCAUGGCAAAGUGGCUGUGGCUAGACUGCCUCUCCGGAUUCCUCGUCACUCAGCGGGGCAUCUCUGAGAGAAAUGCC, with 0.04.
As for CACGUAGGUGGUUUUCCCCUGAUAGUGCUAAGGGGGCCUGGAAGUUUGGACUGGGCAGAGCUCAACACAGCGUGGCAGAGUGGCUGUGGCUAGACUGCCUCUCUGGAUUCCUCGUCACUCAGCAGGGCAUCUCUGAGAGAGAUGCC, the figure is 0.75; as for CACGUAGGUGGUUUUCCCCUGAUAGUGCUAAGGGGGCCUGGAUGUUUGGACUGGGCUGAGCUCAACACAGCGUGGCAAAGUGGCUGUGGCUAGACUGCCUCUCUGGAUUCCUCGUCACUCAGCAGGGCAUCUCUGAGAGAAAUACC, 0.12.
As for CACGUAGGUGGUUUUCCCCUGAUAGUGCUAAGGGGGCCUGGAAGUUUGGACUGGGCAGAGCUCAACCCAGCGUGGCAAAGUGGCUGUGGCUAGACUGCCUCUCUGGAUUCCUCGUCACUCCGCAGGGCAUCUCUGAGAGAAAUGCC, the self-cleavage is 0.
As for CACGUAGGUGGUUUUCCCCUGAUAGUGCUAAGGGGGCCUGGGAGUUUGGACUGGGCAGAGCUCAACACAGCGUGGCAAAGUGGCUGUGGCUAGACUGCCUCUCUGGAUUCCCCGUCACUCAGCAGGGCAUCUCUGAGAGAAAUGCC, the figure is 1.11.
Then CACGUAGGUGGUUUUUCCCUGAUAGUGCAAAGGGGGCCUGGAAGUUUGGACUGGGCAGAGCUCAACACAGCGUGGCAAAGUGGCUGUGGCUAGACUGCCUCUCUGGAUUCCUCGUCACUCAGCAGGGCACCUCUGAGAGAAAUGCC, with 0.72.
As for CACGUAGGUGGUUUUCCCCUGAUAGUGCUAAGGGGGCCUGGAAGUUUGGACUGGGCAGAGCUCAACACAGCGUGGCAGAGUGGCUGUGGCUAGACUGCCUCUCUGGAUUCCUCGUCACUCAGCAGGGCACCUCUGAGAGAAAUGCC, the figure is 0.86.
Regarding CACGUAGGUGGUUUUCCCCUGAUAGUGCUAAGGGGGCCUGGGGGUUUGGACUGGGCAGAGCUCAACACAGCGUGGCAAAGUGGCUGUGGCUAGACUGCCUCUCUGGAUUCCUCGUCACUCAGCAGGGCAUCUCUGAGAGAAAUGCC, the self-cleavage was found to be 0.61.
As for CACGUAGGUGGUUUUCCCCUGAUAGUGCUAAGGGGGCCUGGAAGUUUGGACUGGGCAGAGCUCAACGCAGCGUGGCAAAGUGGCUGUGGCUAGACUGCCUCUCUGGAUUCCUCGUCACUCAGCAGGGCAUCUCUGAGAGAAGUGCC, the figure is 0.19.
Then CACGUAAGUGGUCUUCCCCUGAUAGUGCUAAGGGGGCCUGGAAGUUAGGACUGGGCAGAGCUCAACACAGCGUGGCAAAGUGGCUGUGGCUAGACUGCCUCUCUGGAUUCCUCGUCACUCGGCAGGGCAUCUCUGAGAGAAAUGCC, with 1.27.
As for CACGUAGGUGGUUUUCCCCUGAUAGUGCUAAGGGGGCCUGGAAGUUUGGACUGGGCAGAGCUCAACACGGCGUGGCAAAGUGGCUGUGGCUAGACUGCCUCUCUGGAUUCCUCGUCACUCAGCAGGGCACCUCUGAGAGAAAUGCC, the figure is 0.21; as for CACGUAGGUGGUUUUCCCCUGAUAGUGCUGAGGGGGCCUGGAAGUUAGGACUGGGCAGAGCUCGACACAGCGUGGCAAAGUGGCUGUGGCUAGACUGCCCCUCUGGAUUCCUCGUCACUCUGCAGGGCAUCUCUGAGAGAAAUGCC, 0.84; as for CACGUAGGUGGUUUUCCCCUGAUAGUGCUAAGGGGGCCUGGACGUUUGGACAGGGCAGAGCUCAACACAGCGUGGCAAAGUGGCUGUGGCUAGACUGCCUCUCUGGAUUCCUCGUCACUCAGCAGGGCAUCGCUGAGAGAAAUGCC, 1.22.
CACGUAGGUGGUUUUCCCCUGAUAGUGCUAAGGGGGCCUGGAGGUUCGGACUGGGCAGUGCUCAACACAGCGUGGCAAAGUGGCUGUGGCUAGACUGCCUCUCUGGAUUCCUCGUCACUCAGCAGGGCGUCUCUGAGAGAAAUGCC: the self-cleavage is 0.84.
As for CACGUAGGUGGUUUUCCCCUGAUAGUGCUUAGGGGGCCUGGAAGUUUGGACUGGGCAGAGCACAACACAGCGUGGCAAAGUGGCUGUGGCUAGACUGCCUCUCUGGAUUCCUCGUCACUCAGCAGGGCAUCUCUGAGAGAAAUGCC, the figure is 0.09; as for CAUGUAGGUGGUUUUCCCCUGAUAGUGCUAAGGGGGCCUGGAAGUUUGGACUGGGCAGAGCUCAACACAGCGUGGCAAAGUGGCUGUGGCUAGACUGCCUCUCUGGAUUCCUUGUCACUCAGCAGGGCAUCUCUGGGAGGAGUGCC, 0.85.
As for CACGUAGGUGGUUUUCCCCUGAUAGUGCUAAGGGGGCCUGGAAGUUUGGACUGGGCAGAGCUUAACACAGCGUGGCAAAGUGGCUGUGGCUAGACUGCCACUCUGGAUUCCUCGUCACUCAGCAGGGCAUCUCUGAGAGAAAUGCC, the figure is 0.1; as for CACGUAGGUGGUUUUCCCCUGAUAGUGCUAAGGGGGCCUGGUAGUUUGGACUGGGCAGAGCUCAACACAGCGUGGCAAAGUGGCUGUGGCUAGACUGCCUCUCUGGAUUCCUCGUCACUCAGCAGGGCAUCUCUGAGAGGAAUGCC, 0.24; as for CACGUAGGUGGUUUUCCCCUGAUAGUGCUAAGGGGGCCUGGAAGUUUGGACUGGGAAGAGCUCAACACAGCGUGGCAAAGGGGCUGUGGCUAGACUGCCUCUCUGGAUUCCUCGACACUCAGCAGGGCAUCUCUGAGAGAAAUGCC, 0.09.
As for CACGUAGGUGGUUUUCCCCUGAUAGUGCUAAGGGGGCCUGGAAGUUUGGACUGGGCAGAGCUCAACUCAGCGUGGCAAAGUGGCUGUGCCUAGACUGCCUCUCUGGAUUCCUCGUCACUCAGCAGGGCAUCUCUGAGAGAAAUGCC, the self-cleavage is 0.03.
Then CAUGUAGGUGGUUUUCCCCUGAUAGAGCUAAGGGGGCCUGGAAGUUUGGACUGGGCAGAGCUCAACACAGCGUGGCAAAGUGGCUGUGGCUAGACUGCCUCUCUGGAUUCCUCGUCACUCAGCAGGGCUUCUCUGAGAGAAGUGCC, with 1.06; and CACGUAGGUGGUUUUCCCCUGAUGGUGCUAAGGGGGCCUGGAAGUUUGGACUGGGCAGAGCUCAACACAGCGUGGCAAAGUGGCUGUGGCUAGACUGCCCCUCUGGAUUCCUCGUCACUCAGCAGGGCAUCUCUGAGAGAAAUGCC, with 0.2.
Then CACGUAGGUGGUUUUCCCCUGAUAGUGCUGAGGGGGCCUGGAAGUUUGGACUGGGCAGAGCUCAACACAGCGUGGCAAAGUGGCUGUGGCUAGACAGCCUCUCUGGAUUCCUCGUCACUCAGCAGGGCAUCUCUGAGAGAAAUGCC, with 0.27; and CACGUAGGUGGUUUUCCCCUGAUAGUGCUAAGGGGGCCUGGAAGUUUGGACUGGGCUGAGCUCAACACAGCGUGGCAAAGUGGCUGUGGCUAGACUGCCUCUCUGGAUUCCUCGUCACUCAGCAGUGCAUCUCUGAGAGAAAUGCU, with 0.03; and CACGUAGGUGGUUUUCCCCUGAUAGUGCUAAGGGGGCCUGGAAGUUUGGACUGGGCAGAGCUCAGCACAGCGUGGCAAAGUGGCUGUGGCUAGACUGCCUCUCUGGAUUCCUCGUCACUCAGCAGGGCAUCUCUGAGUGAAAUGCC, with 0.12.
Then CACGUAGGUGGUUUUCCCCUGAUAGUGCUAAGGGGGCCUGGAAGUUUGGACUGGGCAGAGCUCAACACAGCGUGGCAAAGUGGCUGUGGCUAGACUGCCUCUCUGGAUUCCUUGUCACUCAGCAGGGCAUCUCUGAGGGAAAUGCC, with 1; and CACGUAGGUGGUUUUCCCCUGAUAGUGCUAAGGGGGCCUGGAGGUUUGGACUGGGCAGAGCUCAACAUAGCGUGGCAAAGUGGCUGUGGCUAGACUGCCUCUCUGGAUUCCUCGUCACUCAGCAGGGCAUCUCUGAGAGAAAUGCC, with 0.09.
Turning to CACGUAGGUGGUUUUCCCCUGAUAGUGCUAAGGGGGCCUGGAUGUUUGGACCGGGCAGAGCUCAACACAGCGUGGCAAAGUGGCUGUGGCUAGACUGCCUCUCUGGAUUCCUCGUCACUCAGCAGGGCAUCUCUGAGAGAAAUGCC, the self-cleavage worked out at 0.89.
Then CACGUAGGUGGUUUUCCCCUGAUAGUGCUAAGGGGGCCUGGAAGUUUGGACUGGGCAGAGCUCAACACAGCGUGGCAAAGUGGCUGUGGCUAGGCUGCCUCUCUGGAUUCCUCGUCACUCAGCAGGGCGUCUCUGAGAGAAAUGCC, with 0.
